Results as given in PMC10726135.
Some of the results follow. At the low end of the ranking, values are background and their order means little. The protein was read in a cell extract, so binding may be indirect.

What follows are sequences tested against T1, HNF4alpha2 (COS-7 nuclear extract) (UniProt P41235) (assay: protein-binding microarray). Conditions: COS-7 nuclear extract on double-stranded Agilent 4x180k PBM; binding buffer, salt, pH and temperature not given; high values mean tight binding; double strand, one strand shown; sequences stand for … in …GCCTAGGGAGATTAGAGTATCGGTCGA.
T1 sequence: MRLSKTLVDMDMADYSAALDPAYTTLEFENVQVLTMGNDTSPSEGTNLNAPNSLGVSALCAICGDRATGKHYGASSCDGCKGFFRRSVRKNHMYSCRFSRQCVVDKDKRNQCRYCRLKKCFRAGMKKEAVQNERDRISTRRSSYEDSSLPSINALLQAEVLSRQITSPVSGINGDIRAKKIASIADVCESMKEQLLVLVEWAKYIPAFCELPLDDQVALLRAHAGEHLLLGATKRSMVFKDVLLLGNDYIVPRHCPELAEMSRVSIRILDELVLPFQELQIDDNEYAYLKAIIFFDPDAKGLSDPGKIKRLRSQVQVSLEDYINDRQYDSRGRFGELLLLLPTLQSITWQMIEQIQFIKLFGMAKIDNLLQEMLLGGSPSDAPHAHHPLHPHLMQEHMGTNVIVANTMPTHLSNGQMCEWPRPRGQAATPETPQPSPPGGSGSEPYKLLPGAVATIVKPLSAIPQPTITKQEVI

Sequence	binding signal (log2 normalized intensity)
TCCAAACTGCAACCTGATAAGATTTTAGAA	-1.14
GTCAAAGGTTGATGGTATGTTTCAGCCAAG	1.16
AAGCGGCTGGCTTTAAGGTCACATAGCAGG	-0.0902
ATGGACATAGTAACAACCTAAATCAGAGCA	-1.2
GGGCCACTCAGTTGAAGTTCCAGAAGACTA	-1.08
CATCTGCAAGAGAGAATAGATAGTGTGAGG	1.26
GGGTCATGCTGGTCTCCTTGCCCCACCCCC	5.55
TGTGACTGATAAATCCCGAGCCAGAGCCAA	-0.887
CGTCTTACATTTCTAAAGAACATTCCAGCT	-1.13
GTGCTCTGGGTCTGTCCTTTGTGTTTATGG	2.66
TATCTTTCTCCTACAGCCTGATGTTGACAG	0.831
CGTCCTGTGGCAAAGGTGAATGACCCCTCC	4.78
CACTGGCCAAAGGTAATAGGAAAAGGGAGT	-1.1
AGCTAGTAGGAGCGGGCTTAACTAGGAGCC	-1.12
GAGCTGAAACAGTCTGATTCTAGGGCCCAT	-1.16
GGCTAATGCATGTCCCTCCTCAACCTCTCC	-0.256
TCACAAGACTGTTATCACAGCTGGCCCACT	-1.12
AAGCACTGAGCATACAGAACCCATGCTCTT	-1.01
AGGTCCTTGAAAGTAAGCAGACACTGAAAG	-1.08
AAGGTCAGCGCTTTGGTAGGCTGTATGGCT	-1.1
ACACACAGCACTGCAAACAGTGAGCCCAGT	-1.05
TTGAAGTGCTTCCTGTGTATTTCTTCATCA	1.44
GTTAGACGCACGGCAGAGCACCTGGATAAG	-1.16
AACTATGCTAAGAATGCGAACCATTTCCCA	-1.02

Sequence	binding signal (log2 normalized intensity)
AAGCTATCCCTCCATATTGCAGACAGCATA	-1.21
TCTGAGTAAACACAGACTTTGGAATCACAA	2.65
GCACAAAGTACAAAAGAGGCTTCCTGGGCC	-1.16
AATTGTGTGGTTATCTGTTGGGGAATCAGT	1.72
AAACAAATAATGGCTTTTGCCCTCAAGGAG	0.862
CTAGGTCAGCAGTTGTTCAAAGTCCATGTG	5.04
GGTCCACAGCTTTGGGCATACAAAACAACC	-1.09
GAGCACAAGAACAAAAACTGTTTCTATGTG	-1.07
CCTAGCTGAGCAGGGGACTAAGAGCAGCCT	-0.954
AGACTGGCTCCGCTGCTGCAGAGCAAAGCT	-1.11
AGCAATGCTGAGTATGCAGCGGGCAGCCCG	-1.32
CATCCCCCCAAAGGCTCTCTGTTGACCACC	3.62
TAAAATGGACTTTGTGGGCCAAAAGCAGCC	2.22
GACTCCCCAGCAGGCAGACTGGCTCCGCTG	-1.08
TAGCATTTTGCAGAGACGGCAAGCCATAGT	-1.09
CCAAAGTCCTTCCCAAGTCCTGCATGTGTT	1.84
AGGGAGGGCCAAGCCCTCCATCCAACCATT	3.65
GAGGGGAGGAGGGTCAAAACTTCAGACTAT	-1.15
AGGCACACTCTATTATGTAAAACAGACAGG	-0.0649
ATGGATGAATTTTATCACTCCATCAAGGGG	-1.1
TAGATAAGTCCACAAAGATAAGAAAGAATC	-1.1
AGTTTGGGCTGTGAGAAACATCCTGCCTAA	-1.14
CCTGGGTTAAAGTCCGTTACAGACAGGCAG	3.35
GTTAACAGAATGAACAGCTCTTCTTGCCAG	-0.885

Sequence	binding signal (log2 normalized intensity)
TTGGACAGGGTGACGTCATTGGAAATCCGA	-0.417
ACTGATCTCTGGCTTGATCCCTGAACTTTG	3.32
CAGCACCATCCTACAGGGTATGAATTTAAC	-1.07
AGTCAAGGCCAAAGGTTAAAAATAAGTTCT	3.45
GAATCAGGTTTTCAGAAGGTAGGTAAGGGG	0.178
CCAATAACTGCTTCTTTTATGGTGCATTCC	1.4
AAATCCCCCACCATTGTTATCTGATCAAAT	3.37
CTGCCTCAAACAGCTTCGCCTCCTCCAAGC	-1.13
ACAATGTGATTTATGAAGGGGGGTGGGGAG	-1.17
CAGACTGCATTTTCATCTTGCCTTTGCTCC	1.06
TTAGGAAAGAGACATCTGGGAACAAGTTCT	-1.14
CTATTAGGTCTTTGAAGTTGTCTTATCACC	1.34
AAAGGAGGCAGAGACTGCCCTGAGCCGCCA	-1.12
AGTTTCAGGTTCAAATCTAAACCTAGCAGC	-1.11
GTTTCAGCCCTAAAGACCACTGGGCTTTCA	-1.02
AATGCAGGCAATGAATAGAACAAATAAAGT	-1.15
TTTATCTACCTTTGTACCTTTAGTATCTAG	2.9
GGATGGAATTTAAAACATCTTTGAAGAGCA	-0.825
GGAGTCTGGCTGCCCTGGGGTGACAGCTTT	0.0136
GCGCAGACGGCGGATCCTCCCAGCCTGGAG	-1.08
GACTGTCTTAGGAAAGAACAGGTCAAAGGT	3.91
AATATCTCAGCACATGGCAGTGTACACTAG	0.444
CTGAACATGGTGACACACACCTCCAGCCAC	-1.15
GGCTGTTTGGGAACCGTTAGCAACCGGAAG	-0.705

Sequence	binding signal (log2 normalized intensity)
AAGGCCAGAGAAAGAGAGAGTTAGTTCTGC	-1.12
CGGGTGAAGGTTAAATAGCTCATTAAGCTT	-0.974
GTCCTGGCAGGCTTCGAAAAATGGGTCTGG	-0.712
ACCCACCCACACCTCCCCTTTGTTTAACTT	2.8
ACAGATGTAGACATTGGAATGCGGGCTCCA	-0.394
ATAAAACACTGACATCATCGCAGAAAGCTC	-1.11
ATTCTCCCTGCAGTCCTCTGCTTATCTGGC	0.692
TTTTAAGTCACCAGATGAGATAGGAGGTCA	2.05
AATGTGGGGAGCACATGGCATGATCCCTGA	-0.636
ACATGATAGGTTACCTTGACCAAAGTACAG	2.42
GTCAGGAGTACAGGTAGGATCAAGGGTGGA	-0.0481
TTACTGGTGAACATAAATCGCAAATATTTA	-1.07
AAAAGAAGAAAAAACAGGTGTTCTTTCCCT	-1.17
GCATGGTTTACTGAAATAGGTAAGCTGGCC	0.0341
TGAGTGCTTCAGTCCAAAAAGTGGTGGTGT	1.92
TCCTGAGCAGTCCCTTCCCCCCTCCTCATT	4.58
CAAGGAAAACTACACTCTTGCTAAACCCTC	-1.14
TGAAGCGACCCCTCGAGGCAACCTTTGACC	8.54
TAATCAACACTGACAGATTCCTGCTAACAG	-1.02
GAGACCAAATATTAGAACAAACGACGCTCC	-1.07
GGTTTGAATCCCGGGAATCCTCAGCCTTCT	-1.09
